Assay results as given in the RNAGym collection of RNA variant scans (doi:10.7554/elife.90254).
The source gives no read counts; variants with many changes may rest on few reads.

B1: LINE1-full (parent)
chain: UACGUAGGUGGUUUUCCCCUGAUAGUGCUAAGGGGGCCUGGAAGUUUGGACUGGGCAGAGCUCAACACAGCGUGGCAAAGUGGCUGUGGCUAGACUGCCUCUCUGGAUUCCUCGUCACUCAGCAGGGCAUCUCUGAGAGAAAUGCC

Variants of: B1
Test: self-cleavage, relative activity (ratio to wild type); higher = more cleavage; in vitro, sequencing; the parent is a self-cleaving ribozyme

| Variant | self-cleavage |
| --- | --- |
| A42G A57U A129U | 0.17 |
| U39C C84U U134C A140G | 0.14 |
| A42G A77G A140C | 2.85 |
| A42G U62C U100C | 0.58 |
| U39C A79G U115C U143C | 0.71 |
| U39C U96C U115A | 0.05 |
| U39C A117C A129G | 1.84 |
| A42U G60A A78G A142G | 0.04 |
| U39G U46C U108C A136G | 0 |
| U39C G40U U81A | 1.88 |
| A42C C123U A138G | 1.16 |
| U39C C76U U102C A124C | 1.87 |
| U39C U52A A69G G75A A92G U119C | 0 |
| A42G A117G A141G | 1.4 |
| U39C G41A A94G A117U | 0.25 |
| A42G C84A A129G A142G | 0.16 |
| G40U U45A G70A U87C | 0.01 |
| U39C U47C U102A | 1.2 |
| A43G A65G A129G U132C A140U | 0 |
| A43G A78G U115C A117U A136U | 1.45 |
| A42G C66U U87C | 0 |

| Variant | self-cleavage |
| --- | --- |
| A42U U47C U115A U132C | 1.7 |
| U39C A107U U112C | 1.65 |
| A42U U46C A107G G127A | 1.15 |
| A43G A117U U143C | 1.07 |
| A43G C56G U62C | 0.03 |
| U39G A121U U134A | 1.43 |
| A43G A67G C99U A129G | 0.18 |
| A42G A117C U134C | 1.42 |
| A43G A79G U143A | 2.51 |
| A42G A64G U100C A141G | 0 |
| A42G G60C A77G | 0 |
| A42G A79G U85A U108C | 0.3 |
| A42G U87G U100A U102C U143A | 0 |
| A42G U52G U62C G83A A141G | 0.32 |
| G40U A78G A94C | 0.14 |
| A43G A79G U100A U119A | 0.84 |
| U39C A94G U132C A138G | 0.51 |
| G40A A50G C71A A94G | 0.07 |
| A42G A69U A141G | 0 |
| A43G C61U A92G U104G U132C | 0 |
| A42G U81C U119C | 0.57 |

| Variant | self-cleavage |
| --- | --- |
| A43C U45C U81C | 0 |
| A42G U73C U100C A117C | 1.15 |
| A42G A69G U132C A140G | 1.31 |
| A43C A50G C120A | 0.52 |
| G40A A64G G105A | 0.12 |
| U39C U87C A117U | 0.17 |
| A43G A140G A142G | 2.04 |
| A42G U52C U87C G89A | 0 |
| A42C U102C U143C | 1.53 |
| U39C U47C A57G C99U | 0.46 |
| A42G A117G A129G | 1.58 |
| U39C A79G C101A A107G | 2.7 |
| A42U A59G U132G | 0 |
| G41A G54U A107G U108C | 1.17 |
| U39C U81A U85G U100C U112C | 0 |
| A42U A107G U119C | 0.6 |
| A42G G55A A77U U96A | 0.03 |
| A42G A57G U104C C110A | 1.58 |
| A42G A65U U87A G114A | 0.05 |
| A42U A69G U102A | 0.19 |
| U39G U62C C63U | 0.08 |

| Variant | self-cleavage |
| --- | --- |
| A42G U87A U102C | 0.16 |
| U39C U112C G114A A138U | 1.84 |
| A42G C56U A121C | 0.33 |
| A42U C51U A94G A140U | 0.25 |
| A43G A67U A138G | 0.09 |
| A42G A43G A57G A79U | 1.67 |
| A43G A124G A142U | 0.82 |
| A42G G72A U91C | 0.14 |
| A42U A77U G83A A142G | 0.48 |
| A42U U85G U130C A141G | 0.05 |
| U39C U130C A136G | 1.74 |
| U39C U130A A141G | 0.86 |
| U39C U87A A92G | 0 |
| A42U C90A U96C | 0.03 |
| G40U U45C U81C | 1.16 |
| U39C U115C C145U | 1.48 |
| A42G U46G A121U A141U | 0 |
| A42G A136U A142G | 1.23 |
| U39C G48A A138U | 0.93 |
| U39C U46C U87C | 0 |
| U39C A79G A94U | 0.39 |
